Out of some 71,000 compounds screened, about 1,800 (2.5%) were called active. The shares of active, inactive and inconclusive entries below differ from those in the screen. Calls follow the shape of the dose curve; as a rule, active = well fitted activation curve with a large enough effect in the signal ratio, with a control signal flat (not every such curve was filed as active); inconclusive = small, poorly fitted or top-dose-only effect, or effect the other way, or a change in a side signal; inactive = flat fitted curve, though single readings scatter; the % refers to the signal ratio. A potency beside an inconclusive call is a rough fit, not a confirmed value.
Experiment: Cell signaling CRE-BLA (Fsk stim); as to activity change, negative = inhibition: % of control where 0% means no effect
Settings: CHO CRE-bla reporter (cAMP response element driving beta-lactamase), forskolin EC10, beta-lactamase ratio
Procedure, shortened: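 qHTS titration format; CRE-bla CHO reporter; stimulus EC10 NKH 477, a water-soluble forskolin. Read: CCF4 460/530 nm ratio. Potency expressed as AC50 for activators or inhibitors.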

[1] = activity change, negative = inhibition: at 38.2 µM (top of the series) unless noted
Potency is read from the fitted curve at half-maximal effect; tags tell the direction and shape of the fitted curve.

For `Fc1cc2nccnc2cc1N1CCSCC1`, the Potency [1] was inconclusive: 20 µM [falling, single point].
In the case of `COc1ccc(NC(=O)CCn2nc(C)cc2C)cc1`, the Potency [1] is reported as inconclusive: 3.98 µM [rising, single point].
With `Cc1nc2c(cnn2-c2ccc(Cl)cc2)c(=O)n1-c1ccc2c(c1)OCCO2` the activity change, negative = inhibition [1] was inconclusive: -10.3%.
In the case of `O=C(CN1CCOc2ccccc21)N1CCN(c2cccc(Cl)c2)CC1`, the activity change, negative = inhibition [1] is reported as inconclusive: -15.7%.
For `Cc1cc(C)n(-c2nc3ccccc3nc2N2CCN(C(=O)c3ccc(Cl)cc3)CC2)n1`, the Potency [1] was inconclusive: 12.6 µM [rising, partial curve].
For `CN(C)c1nc(N)nc(CSc2ncc(Cl)cc2Cl)n1`, the Potency [1] was inconclusive: 10 µM [rising, partial curve].
With `N#CCSc1nc2ccc(N3CCCCC3)cc2c(=O)n1Cc1ccccc1` the Potency [1] was inconclusive: 25.1 µM [rising, partial curve, poor fit].
For `COc1ccc(CC(=O)Nc2cc(C)c3c(=O)oc4ccccc4c3n2)cc1`, the Potency [1] was inconclusive: 10 µM [rising, partial curve].
With `O=C(COc1cccc(C(F)(F)F)c1)Nc1ccc(S(=O)(=O)N2CCCC2)cc1` the activity change, negative = inhibition [1] was inconclusive: 26%.
In the case of `O=C(Nc1ccccc1)N1CCN(c2nc3ccccc3s2)CC1`, the Potency [1] is reported as inconclusive: 15.8 µM [rising, partial curve].
With `O=c1cc(Nc2ccc3c(c2)OCCO3)[nH]c(=O)n1-c1ccc(Br)cc1` the Potency [1] was inconclusive: 31.6 µM [falling, single point].
For `CCC(=O)N1CCc2cc(S(=O)(=O)NCCC(=O)N3CCN(c4ccccn4)CC3)ccc21`, the activity change, negative = inhibition [1] was inconclusive: 26.9%.
With `Cc1nnc(SCC(=O)c2c(N)n(C)c(=O)n(C)c2=O)[nH]c1=O` the activity change, negative = inhibition [1] was “inactive”.
For `COc1ccc(-c2nc(NC(=O)c3cc(C(C)(C)C)nn3C)sc2C)cc1`, the activity change, negative = inhibition [1] was inconclusive: -15.9%.
In the case of `CN[C@H]1[C@@H](O)[C@@H](NC)[C@@H]2O[C@@]3(O)C(=O)C[C@@H](C)O[C@H]3O[C@H]2[C@H]1O`, the activity change, negative = inhibition [1] is reported as “inactive”.
With `CCOC(=O)c1c(NC(=O)c2nc3n(n2)C(C(F)F)CC(C)N3)sc2c1CCCC2` (centres undefined) the Potency [1] was inconclusive: 5.01 µM [rising, partial curve].
With `Cc1ccc2c(c1)c1ncnc(N3CCC4(CC3)OCCO4)c1n2C` the Potency [1] was inconclusive: 12.6 µM [rising, partial curve].
With `COc1ccc([C@@H](Nc2ncccn2)c2cc3c(cc2O)OCO3)cc1` the activity change, negative = inhibition [1] was inactive: -1.21% [at 7.6 µM].
For `CN1CCN(c2nc(-c3ccccc3C(F)(F)F)nc3ccccc23)CC1`, the activity change, negative = inhibition [1] was inconclusive: 7.93%.
With `CC(Oc1ccc(Cl)cc1Cl)c1nc(-c2ccccn2)no1` (centres undefined) the Potency [1] was inconclusive: 5.01 µM [rising, single point].
With `COC(=O)CSc1nc2cc(OC)ccc2cc1C#N` the activity change, negative = inhibition [1] was inconclusive: 27%.
In the case of `COC(=O)CCSc1nccn1Cc1ccccc1`, the activity change, negative = inhibition [1] is reported as inconclusive: 1.84%.
In the case of `CC(C)C(c1nnnn1C1CCCC1)N1c2ccccc2CC1C` (centres undefined), the activity change, negative = inhibition [1] is reported as “inactive”.
In the case of `Cc1ccc(-c2nn3c(C)nnc3s2)cc1NC(=O)C(C)C`, the Potency [1] is reported as inconclusive: 10 µM [rising, single point].
In the case of `S=C(S)O[C@@H]1C[C@@H]2C[C@H]1[C@@H]1CCC[C@H]21`, the activity change, negative = inhibition [1] is reported as inconclusive: 12.3% and the activity change, negative = inhibition (at 38.2 µM (top of the series)) is reported as inactive: 0.529%.
With `COc1ccc(-c2nnc(SCC(=O)NC3CCCCC3)o2)cc1OC` the Potency [1] was inconclusive: 10 µM [rising, single point].
In the case of `COc1cc(OC)cc(C(=O)NCc2nc(-c3ccccc3)no2)c1`, the activity change, negative = inhibition [1] is reported as inconclusive: 7.86%.
With `Cc1c(C(=O)NCc2ccc3c(c2)OCO3)oc2ccc(S(=O)(=O)N3CCC(C)CC3)cc12` the activity change, negative = inhibition [1] was inconclusive: 7.3% [cytotoxic].
With `COc1ccc(-c2noc(-c3cc(C)cc(C)c3)n2)cc1OC` the Potency [1] was inconclusive: 2.51 µM [rising, full curve, poor fit].
In the case of `Cc1ccc(CNC(=O)CCc2nc3ccccc3c(=O)[nH]2)cc1`, the activity change, negative = inhibition [1] is reported as “inactive”.
In the case of `CCCCSc1nc2c(cnn2-c2ccc(Cl)cc2)c(=O)[nH]1`, the Potency [1] is reported as inconclusive: 3.16 µM [rising, partial curve, poor fit].
In the case of `O=C1OC(=O)c2ccccc21`, the activity change, negative = inhibition [1] is reported as “inactive”.
For `CCOc1ccc2[nH]c(=O)c(C(c3nnnn3Cc3ccco3)N3CCC(C)CC3)cc2c1` (centres undefined), the activity change, negative = inhibition [1] was “inactive”.
For `N/C(=N\O)c1ccc(NC(=O)c2ccc(Br)o2)cc1`, the activity change, negative = inhibition [1] was inconclusive: -15.3%.
In the case of `COc1ccc([C@@H]2[C@H]3CN(C(C)=O)CC=C3C(C#N)=C(N)C2(C#N)C#N)c2ccccc12`, the Potency [1] is reported as inconclusive: 3.16 µM [rising, single point].
With `O=C(Nc1ccc(F)cc1)c1cccc2c1C(=O)N(Cc1ccccn1)C2` the Potency [1] was inconclusive: 20 µM [rising, single point].
In the case of `Cc1cc(N(C)C)c(C#N)c(N2CCOCC2)n1`, the Potency [1] is reported as inconclusive: 12.6 µM [rising, single point].
In the case of `CC(=O)/C=C(\C)Nc1ccc(-c2cnc(-c3ccccc3)o2)cc1`, the Potency [1] is reported as inconclusive: 3.98 µM [rising, partial curve].

Source: PubChem BioAssay AID662 (National Center for Advancing Translational Sciences (NCATS), 2007)
